Reference: publication PMC5382721 (Cell reports, 2017)

Tests used:
eIF3c-B_(36–163) [1] = molecular target: T1, eIF3c-B_(36–163) (yeast (S. cerevisiae), UniProt P32497 36-163); assay: ITC
eIF3c-B_(36–163) [2] = molecular target: T1, eIF3c-B_(36–163); assay: NMR titration

B1: eIF[…]A (natural protein)
chain: not shown
eIF3c-B_(36–163) [1]
  binding result: binds

B2: eIF[…]E (natural protein)
chain: not shown
eIF3c-B_(36–163) [1]
  binding result: binds

B3: eIF[…]P (natural protein)
chain: not shown
eIF3c-B_(36–163) [2]
  binding result: binds
